From PubChem BioAssay AID250 (DTP/NCI, 2004) come the findings set out here.

“And” between values parts separate entries of the source, which are not always exact repeats. Equal values may be shown once. This continues a long series; more values of the same kind are listed elsewhere. Toxic doses and inconclusive results are not listed.

For this assay, the system named is BDF1 mice, L1210 leukemia sc, survival T/C. Description: NCI In Vivo Anticancer Drug Screen. Data for tumor model L1210 Leukemia (subcutaneous) in B6D2F1 (BDF1) mice. Conditions: endpoint: median survival time, higher = longer survival. As to the method: The antitumor activity of compounds was measured in mice bearing transplantable tumors. Survival or tumor size were measured and the results are expressed as the measurement made in the treated group (T) divided by the measurement made in the vehicle treated control group (C). The tumor model used in this assay is L1210 Leukemia (subcutaneous) in B6D2F1 (BDF1) mice

[1] abbreviates: dose: 65.0 mg/kg/injection, schedule: Q02DX Z (sc), vehicle: saline.
Where [2] appears, read: dose: 108.0 mg/kg/injection, schedule: Q## X Z (sc), vehicle: saline.
Where [3] appears, read: dose: 180.0 mg/kg/injection, schedule: Q## X Z (sc), vehicle: saline.
The mark [4] stands for this setting: dose: 65.0 mg/kg/injection, schedule: Q16DX002 (ip), vehicle: saline.

Consider `S=c1nc[nH]c2nc[nH]c12`, for which the T/C is, setting by setting: (dose: 8.4 mg/kg/injection, schedule: Q## X Z (sc), vehicle: other) 168 % of control; (dose: 14.0 mg/kg/injection, schedule: Q## X Z (sc), vehicle: other) 168 % of control; (dose: 23.0 mg/kg/injection, schedule: Q#A X Z (sc), vehicle: other) 163 % of control; (dose: 39.0 mg/kg/injection, schedule: Q#A X Z (sc), vehicle: other) 157 % of control; (dose: 40.0 mg/kg/injection, schedule: Q01DX009 (ip), vehicle: other) 168 % of control; (dose: 64.8 mg/kg/injection, schedule: Q01DX Z (sc), vehicle: other) 172 % of control. Moreover, the T/C runs as follows: (dose: 65.0 mg/kg/injection, schedule: Q01DX Z (ip), vehicle: other) 170 % of control; (dose: 65.0 mg/kg/injection, schedule: Q01DX Z (oral), vehicle: other) 175 % of control; (dose: 65.0 mg/kg/injection, schedule: Q#A X Z (sc), vehicle: other) 173 % of control; (dose: 78.0 mg/kg/injection, schedule: Q01DX Z (sc), vehicle: other) 158 % of control; (dose: 90.0 mg/kg/injection, schedule: Q01DX009 (ip), vehicle: saline) 166 % of control and 168 % of control (2×); (dose: 108.0 mg/kg/injection, schedule: Q01DX Z (oral), vehicle: other) 165 % of control. Besides, the T/C by setting is: (dose: 108.0 mg/kg/injection, schedule: Q02DX Z (sc), vehicle: other) 177 % of control and 189 % of control; (dose: 108.0 mg/kg/injection, schedule: Q#A X Z (sc), vehicle: other) 157 % of control; (dose: 120.0 mg/kg/injection, schedule: Q01DX009 (ip), vehicle: saline) 161 % of control; (dose: 130.0 mg/kg/injection, schedule: Q01DX Z (sc), vehicle: other) 165 % of control; (dose: 180.0 mg/kg/injection, schedule: Q02DX Z (sc), vehicle: other) 166 % of control and 168 % of control; (dose: 240.0 mg/kg/injection, schedule: Q01DX009 (ip), vehicle: saline) 73 % of control. In addition, the T/C (dose: 300.0 mg/kg/injection, schedule: Q02DX Z (sc), vehicle: other) was 166 % of control.

With `O=C(Nc1ccc(C2=NCCN2)cc1)c1ccc(C(=O)Nc2ccc(C3=NCCN3)cc2)c(Cl)c1`, the T/C (dose: 14.0 mg/kg/injection, schedule: Q01DX Z (sc), vehicle: saline) was 219 % of control and 227 % of control; the T/C (dose: 23.0 mg/kg/injection, schedule: Q01DX Z (sc), vehicle: saline) is 223 % of control; the T/C (dose: 39.0 mg/kg/injection, schedule: Q02DX Z (sc), vehicle: saline) is 225 % of control; the T/C under setting [1] is 210 % of control; the T/C under setting [2] was 210 % of control; the T/C under setting [3] is 215 % of control. Also, the T/C reads like this: (dose: 300.0 mg/kg/injection, schedule: Q01DX001 (sc), vehicle: saline) 210 % of control; (dose: 500.0 mg/kg/injection, schedule: Q01DX001 (sc), vehicle: saline) 210 % of control; (dose: 833.0 mg/kg/injection, schedule: Q01DX001 (sc), vehicle: saline) 225 % of control.

Turning to `O=P1(N(CCCl)CCCl)NCCCO1` (centres undefined), the T/C (dose: 23.0 mg/kg/injection, schedule: Q#A X Z (sc), vehicle: saline) is 330 % of control; the T/C (dose: 30.0 mg/kg/injection, schedule: Q01DX001 (ip), vehicle: saline) is 475 % of control; the T/C (dose: 39.0 mg/kg/injection, schedule: Q01DX Z (ip), vehicle: saline) is 380 % of control; the T/C (dose: 39.0 mg/kg/injection, schedule: Q01DX Z (sc), vehicle: other) is 250 % of control; the T/C (dose: 39.0 mg/kg/injection, schedule: Q08DX003 (ip), vehicle: saline) is 72 % of control; the T/C (dose: 65.0 mg/kg/injection, schedule: Q01DX Z (ip), vehicle: saline) was 245 % of control. Further, the T/C runs as follows: (dose: 65.0 mg/kg/injection, schedule: Q01DX Z (oral), vehicle: saline) 310 % of control; under setting [1], 370 % of control; (dose: 65.0 mg/kg/injection, schedule: Q08DX003 (ip), vehicle: saline) 85 % of control; under setting [4], 85 % of control; (dose: 65.0 mg/kg/injection, schedule: Q## X Z (sc), vehicle: saline) 295 % of control; (dose: 100.0 mg/kg/injection, schedule: Q01DX009 (sc), vehicle: saline) 247 % of control. Moreover, the T/C reads like this: (dose: 100.0 mg/kg/injection, schedule: Q07DX003 (sc), vehicle: saline) 266 % of control; (dose: 108.0 mg/kg/injection, schedule: Q02DX Z (sc), vehicle: saline) 260 % of control; (dose: 108.0 mg/kg/injection, schedule: Q07DX Z (sc), vehicle: saline) 286 % of control and 360 % of control; (dose: 108.0 mg/kg/injection, schedule: Q16DX002 (ip), vehicle: saline) 84 % of control; under setting [2], 335 % of control; (dose: 169.0 mg/kg/injection, schedule: Q07DX003 (sc), vehicle: saline) 250 % of control. Besides, the T/C (dose: 180.0 mg/kg/injection, schedule: Q07DX Z (sc), vehicle: saline) is 400 % of control; the T/C (dose: 180.0 mg/kg/injection, schedule: Q16DX002 (ip), vehicle: saline) was 84 % of control; the T/C under setting [3] is 270 % of control; the T/C (dose: 200.0 mg/kg/injection, schedule: Q07DX003 (sc), vehicle: saline) was 272 % of control and 277 % of control; the T/C (dose: 200.0 mg/kg/injection, schedule: Q07DX004 (sc), vehicle: saline) is 277 % of control and 300 % of control; the T/C (dose: 264.0 mg/kg/injection, schedule: Q07DX003 (sc), vehicle: saline) is 300 % of control and 316 % of control. Besides, the T/C runs as follows: (dose: 300.0 mg/kg/injection, schedule: Q01DX014 (sc), vehicle: saline) 274 % of control; (dose: 300.0 mg/kg/injection, schedule: Q07DX Z (sc), vehicle: saline) 295 % of control; (dose: 400.0 mg/kg/injection, schedule: Q01DX001 (ip), vehicle: saline) 64 % of control; (dose: 500.0 mg/kg/injection, schedule: Q01DX001 (ip), vehicle: saline) 61 % of control; (dose: 500.0 mg/kg/injection, schedule: Q01DX014 (sc), vehicle: saline) 69 % of control; (dose: 600.0 mg/kg/injection, schedule: Q01DX001 (ip), vehicle: saline) 61 % of control. The T/C is, setting by setting: (dose: 600.0 mg/kg/injection, schedule: Q01DX001 (sc), vehicle: saline) 67 % of control; (dose: 625.0 mg/kg/injection, schedule: Q01DX001 (sc), vehicle: saline) 59 % of control.

For `N=c1ccn2c(n1)OC1C(O)C(CO)OC12` (centres undefined), the T/C was 305 % of control (dose: 400.0 mg/kg/injection, schedule: Q## X009 (sc), vehicle: water) and 77 % of control (dose: 800.0 mg/kg/injection, schedule: Q01DX009 (sc), vehicle: water).

On to `O=NN(CCCl)C(=O)NCCCl`, for which the T/C is 69 % of control (dose: 5.0 mg/kg/injection, schedule: Q16DX002 (ip), vehicle: saline); 800 % of control (dose: 14.0 mg/kg/injection, schedule: Q01DX001 (ip), vehicle: saline); 663 % of control and 750 % of control (dose: 14.0 mg/kg/injection, schedule: Q07DX Z (sc), vehicle: saline); 661 % of control (dose: 23.0 mg/kg/injection, schedule: Q01DX001 (oral), vehicle: saline); 857 % of control (dose: 39.0 mg/kg/injection, schedule: Q01DX001 (oral), vehicle: saline); 77 % of control (dose: 39.0 mg/kg/injection, schedule: Q16DX002 (ip), vehicle: saline). In addition, the T/C under setting [4] is 69 % of control.
